{
  "source": "PubChem BioAssay AID1460",
  "about": "(National Center for Advancing Translational Sciences (NCATS), 2008)",
  "note": "In all, about 270,000 compounds went through this assay and about 5,800 (2.1%) were called active. This list was built around the results that the source calls inconclusive (neither active nor inactive); the mix of calls is not that of the screen. Calls follow the shape of the dose curve; as a rule, active = well fitted inhibition curve with a large enough effect; inconclusive = small, poorly fitted or top-dose-only effect; inactive = flat fitted curve, though single readings scatter. Where the call is inconclusive, the potency comes from a doubtful curve fit. Potency is read from the fitted curve at half-maximal effect; tags tell the direction and shape of the fitted curve.",
  "data": [
    {"biological_target": "Microtubule-associated protein tau (Homo sapiens) (UniProt P10636)", "sequence (P10636 whole entry, looked up, the tested form may be a part)": "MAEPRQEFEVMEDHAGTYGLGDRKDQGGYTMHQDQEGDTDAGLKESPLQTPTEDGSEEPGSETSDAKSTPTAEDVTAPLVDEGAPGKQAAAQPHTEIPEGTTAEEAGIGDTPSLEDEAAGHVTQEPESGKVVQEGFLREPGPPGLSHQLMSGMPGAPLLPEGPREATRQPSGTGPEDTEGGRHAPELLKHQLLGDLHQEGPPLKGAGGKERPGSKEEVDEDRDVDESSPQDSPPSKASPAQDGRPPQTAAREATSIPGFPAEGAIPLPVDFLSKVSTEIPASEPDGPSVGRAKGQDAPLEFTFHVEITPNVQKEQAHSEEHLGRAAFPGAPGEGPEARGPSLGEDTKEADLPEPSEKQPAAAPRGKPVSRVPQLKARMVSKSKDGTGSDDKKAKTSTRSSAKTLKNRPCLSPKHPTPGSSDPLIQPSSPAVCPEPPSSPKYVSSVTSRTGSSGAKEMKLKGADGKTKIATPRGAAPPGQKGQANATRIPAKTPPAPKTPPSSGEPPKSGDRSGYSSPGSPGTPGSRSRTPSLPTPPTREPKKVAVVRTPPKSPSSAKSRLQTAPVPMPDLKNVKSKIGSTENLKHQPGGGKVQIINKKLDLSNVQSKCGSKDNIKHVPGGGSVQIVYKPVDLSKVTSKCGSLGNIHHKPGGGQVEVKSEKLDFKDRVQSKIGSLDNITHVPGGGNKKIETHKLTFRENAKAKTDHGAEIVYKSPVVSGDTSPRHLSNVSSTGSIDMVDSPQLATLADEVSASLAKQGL", "test": "qHTS for Inhibitors of Tau Fibril Formation, Thioflavin T Binding; also: nearly all actives have a fitted effect of over 55% in size", "conditions": "recombinant tau K18 P301L (four-repeat tau fragment), heparin-induced fibrillization, ThT fluorescence; series mostly up to 57.4 µM", "outline": "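Recombinant human tau K18 fragment […] carrying P301L, 15 uM unlabeled plus 0.24 uM Alexa 594-labeled, was fibrillized with 20 uM heparin in 100 mM sodium acetate pH 7 for 6 hr at 37 C; 30 uM ThT fluorescence read after 1 hr.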", "values": [
      {"smiles": "CC(/C=N/Nc1nc(C)cc(C)n1)=C\\c1ccc(C(C)C)cc1", "Potency": "inconclusive: 10 µM [inhibitor, partial curve]"},
      {"smiles": "COc1ccc(C(=O)CN2CCN(c3ccc(F)cc3)CC2)cc1OC", "Potency": "inconclusive: 17.8 µM [inhibitor, partial curve]"},
      {"smiles": "CCCCCC(=O)Nc1nc(C)c(-c2csc(Nc3ccccc3OC)n2)s1", "Potency": "inconclusive: 6.31 µM [inhibitor, partial curve]"},
      {"smiles": "CCCn1c(SCC(=O)c2ccc3c(c2)NC(=O)CO3)nc2ccccc21", "Potency": "inconclusive: 31.6 µM [inhibitor, partial curve, poor fit]"},
      {"smiles": "COc1ccc(NC(=O)N2c3ccc(OC)cc3C(C)=CC2(C)C)cc1", "Potency": "active: 31.6 µM"},
      {"smiles": "Cc1cc(C)n(-c2ccc(C(=O)Oc3ccc4c(c3)OCO4)cc2)n1", "Potency": "inconclusive: 3.55 µM [inhibitor, partial curve]"},
      {"smiles": "Cc1cc(C)c(C#N)c(SCC(=O)N2CCCCC2)n1", "Potency": "inactive"},
      {"smiles": "COc1ccc(OC)c(NC(=O)Nc2ccc(Cl)cc2)c1", "Potency": "inconclusive: 17.8 µM [inhibitor, partial curve]"},
      {"smiles": "COC(=O)CNC(=O)[C@@]1(C)C=C[C@@H](Cc2ccccc2)N1C(=O)OC", "Potency": "inconclusive: 28.2 µM [inhibitor, single point]"},
      {"smiles": "CCCCN(CC)Cc1ccc(CNC(=O)Nc2ccc(F)cc2)o1", "Potency": "inactive"},
      {"smiles": "NNc1nc2ccc(Cl)cc2s1", "Potency": "active: 22.4 µM"},
      {"smiles": "O=C(c1cc2c(s1)-c1ccccc1OC2)N1CCN(c2ccc(F)cc2)CC1", "Potency": "inconclusive: 1.26 µM [inhibitor, full curve]"},
      {"smiles": "C/C(Cn1nnc([N+](=O)[O-])n1)=N\\NC(=O)c1ccc(Cl)c(Cl)c1", "Potency": "inconclusive: 35.5 µM [inhibitor, single point]"},
      {"smiles": "CCOC(=O)C1=C(C)N=C2SC(C)C(=O)N2C1c1ccc(C(=O)OC)cc1", "note": "(stereo not drawn)", "Potency": "inconclusive: 20 µM [inhibitor, single point]"},
      {"smiles": "CN(C)CCNC(=O)/C(=C/c1ccc(-c2cccc([N+](=O)[O-])c2)o1)NC(=O)c1ccccc1", "Potency": "inconclusive: 10 µM [inhibitor, partial curve, poor fit]"},
      {"smiles": "CCOC(=O)Cc1csc(NC(=O)Nc2ccccc2)n1", "Potency": "inactive"},
      {"smiles": "COc1ccccc1/C=C/C=N/NC(=O)Cc1cccn1C", "Potency": "inconclusive: 15.8 µM [inhibitor, partial curve]"},
      {"smiles": "O=c1c2cc(N3CCOCC3)ccc2[nH]c(=S)n1Cc1ccccn1", "Potency": "inconclusive: 31.6 µM [inhibitor, single point]"},
      {"smiles": "COc1cc2c(cc1OC)CN(C(=O)COc1ccc(C#N)cc1)CC2", "Potency": "inconclusive: 17.8 µM [inhibitor, partial curve]"},
      {"smiles": "Cc1nnc(NC(=O)CSc2cn(CCNC(=O)c3ccccc3)c3ccccc23)s1", "Potency": "inconclusive: 14.1 µM [inhibitor, partial curve]"},
      {"smiles": "N#C/C(=C\\c1ccc(N2CCOCC2)o1)C(=O)NCCc1ccccc1", "Potency": "active: 8.91 µM"},
      {"smiles": "NNc1nc(-c2ccccc2)nc2sc3c(c12)CCCC3", "Potency": "inconclusive: 10 µM [inhibitor, partial curve, poor fit]"},
      {"smiles": "O=C(c1cc2ncc(Br)cn2n1)N1CCN(C(=O)c2ccco2)CC1", "Potency": "inactive"},
      {"smiles": "CCOc1ccc(NCC(=O)N/N=C/C=C/c2ccccc2)cc1", "Potency": "active: 11.2 µM"},
      {"smiles": "COc1cc(C(=O)OCC(=O)NCc2ccco2)cc(OC)c1OC", "Potency": "inconclusive: 20 µM [inhibitor, partial curve]"},
      {"smiles": "Oc1ccc(CNc2ccccc2)c2cccnc12", "Potency": "inconclusive: 12.6 µM [inhibitor, partial curve]"},
      {"smiles": "Cc1cc(C)cc(NC(=O)c2cc(S(=O)(=O)N3CCCC3)ccc2F)c1", "Potency": "inactive"},
      {"smiles": "O=C(Cc1n[nH]c(=O)c2ccccc12)Nc1cccc(S(=O)(=O)N2CCCC2)c1", "Potency": "inactive"},
      {"smiles": "CCOC(=O)N1CCN(c2nc(-c3ccc(F)cc3)cs2)CC1", "Potency": "inconclusive: 11.2 µM [inhibitor, partial curve]"},
      {"smiles": "O=C(C1CCN(S(=O)(=O)c2cccc3cccnc23)CC1)N1CCN(C2CCCC2)CC1", "Potency": "inactive"},
      {"smiles": "COc1cc(CNc2ccc(N3CCCC3)cc2)cc(Cl)c1OC", "Potency": "active: 3.98 µM"},
      {"smiles": "CO[C@H]1C[C@@H]2CC[C@@H](C)[C@@](O)(O2)C(=O)C(=O)N2CCCC[C@H]2C(=O)O[C@H]([C@H](C)C[C@@H]2CC[C@@H](O)[C@H](OC)C2)CC(=O)[C@H](C)C=C(C)[C@@H](O)[C@@H](OC)C(=O)[C@H](C)C[C@H](C)C=CC=CC=C1C", "Potency": "inconclusive: 28.2 µM [inhibitor, single point]"},
      {"smiles": "CCC/C=N/NC(=O)c1cccc(Br)c1", "Potency": "inconclusive: 22.4 µM [inhibitor, single point]"},
      {"smiles": "S=C(N/N=C/c1ccc2ncccc2c1)Nc1ccccc1", "Potency": "inconclusive: 15.8 µM [inhibitor, single point]"},
      {"smiles": "COc1ccc(OC)c(CCNC(=O)Cn2nc(C)n3c(cc4sccc43)c2=O)c1", "Potency": "inactive"},
      {"smiles": "CC[C@H](C)C(=O)O[C@H]1C[C@H](O)C=C2C=C[C@H](C)[C@H](CC[C@@H](O)C[C@@H](O)CC(=O)O)[C@H]21", "Potency": "inactive"},
      {"smiles": "CCCCNc1ccc(C(CC(N)=O)NC(=O)c2ccccc2)cc1[N+](=O)[O-]", "note": "(stereo not drawn)", "Potency": "inconclusive: 28.2 µM [inhibitor, partial curve]"},
      {"smiles": "O=C(NNC(=S)Nc1ccc(F)cc1)C1CC1c1ccc(Cl)cc1", "note": "(stereo not drawn)", "Potency": "inconclusive: 1 µM [activator, single point]"},
      {"smiles": "COc1ccc(/C=C/C(=O)Nc2ccc3nc4c(c(Nc5ccc(OC)c(OC)c5)c3c2)CCCC4)cc1", "Potency": "active: 25.1 µM"},
      {"smiles": "CCCc1nn2cc(-c3ccc(C)c(C)c3)nc2s1", "Potency": "inconclusive: 10 µM [inhibitor, partial curve, poor fit]"},
      {"smiles": "COc1cccc(/C=C/C2=CC(C)(C)NC(=S)N2)c1", "Potency": "inactive"},
      {"smiles": "CCc1nnc(SCC(=O)Nc2cccc(C(F)(F)F)c2)c2cc3oc(C)cc3n12", "Potency": "inconclusive: 17.8 µM [inhibitor, partial curve, poor fit]"},
      {"smiles": "CCN(CC)c1ccc2cc(C(C)=O)c(=O)oc2c1", "Potency": "inconclusive: 15.8 µM [activator, partial curve]"},
      {"smiles": "C=CCn1c(Cc2c[nH]c3ccccc23)nnc1SCC(=O)NCc1ccccc1", "Potency": "inactive"},
      {"smiles": "CC1=C(C(=O)O)N2C(=O)[C@@H](NC(=O)[C@H](N)c3ccccc3)[C@H]2SC1", "Potency": "inconclusive: 14.1 µM [inhibitor, partial curve]"},
      {"smiles": "COc1ccc(CNC(=O)c2nn(C)c3c2CS(=O)(=O)c2ccccc2-3)cc1", "Potency": "inactive"},
      {"smiles": "CC(=O)c1ccc(NC(=O)CSc2ccc3nnc(CCNS(=O)(=O)c4ccc(C)cc4)n3n2)cc1", "Potency": "inactive"},
      {"smiles": "CCC1CCCCN1S(=O)(=O)c1cc2c(cc1C)NC(=O)CO2", "note": "(stereo not drawn)", "Potency": "inconclusive: 44.7 µM [inhibitor, single point]"},
      {"smiles": "Cc1ccc(-c2cc(-c3ccccc3[N+](=O)[O-])[nH]n2)c(O)c1", "Potency": "inconclusive: 31.6 µM [inhibitor, single point]"},
      {"smiles": "C=C1CC[C@H](O)C/C1=C/C=C1\\CCC[C@]2(C)C([C@H](C)CC[C@@H](O)C(C)(C)O)CC[C@@H]12", "note": "(stereo partly drawn)", "Potency": "inactive"},
      {"smiles": "O=c1[nH]c2ccc(NCc3ccc(-c4ccc(F)cc4)o3)cc2[nH]1", "Potency": "inconclusive: 0.562 µM [inhibitor, full curve]"},
      {"smiles": "Cc1ccc(S(=O)(=O)c2c(N)n(CC3CCOC3)c3nc4ccccc4nc23)cc1", "note": "(stereo not drawn)", "Potency": "inconclusive: 8.91 µM [inhibitor, partial curve, poor fit]"},
      {"smiles": "CCCc1c(OCCCOc2ccc(OCC(=O)O)cc2)ccc(C(C)=O)c1O", "Potency": "inconclusive: 17.8 µM [inhibitor, partial curve, poor fit]"},
      {"smiles": "COc1ccc2[nH]cc(CCNc3ncnc4ccc(-c5ccccc5C#N)cc34)c2c1", "Potency": "inconclusive: 15.8 µM [inhibitor, partial curve]"},
      {"smiles": "CC(C)CN(C(=O)CN1CCN(c2ccc(O)cc2)CC1)c1c(N)n(CC(C)C)c(=O)[nH]c1=O", "Potency": "inconclusive: 28.2 µM [inhibitor, single point]"},
      {"smiles": "c1ccc(N2CCN(c3nc4cc5c(cc4s3)OCCO5)CC2)cc1", "Potency": "inconclusive: 1.41 µM [inhibitor, full curve]"},
      {"smiles": "O=C(CCCNC(=O)/C(=C/c1ccccc1F)NC(=O)c1ccccc1)OCc1ccccc1", "Potency": "inactive"},
      {"smiles": "COc1cc(C(=O)N2CCN(C(=O)c3ccco3)CC2)c([N+](=O)[O-])cc1OC", "Potency": "inactive"},
      {"smiles": "CCCOc1ccc(NCC(=O)Nc2ccc(C)cc2C)cc1", "Potency": "inconclusive: 17.8 µM [inhibitor, partial curve]"},
      {"smiles": "Cc1ccc(-c2csc3ncnc(Nc4ccc(N5CCOCC5)cc4)c23)cc1", "Potency": "inconclusive: 39.8 µM [inhibitor, single point]"},
      {"smiles": "Cc1ccc(OCC(=O)c2cc(C)n(C)c2C)c([N+](=O)[O-])n1", "Potency": "inactive"},
      {"smiles": "CC1CCC(C(C)C)C(OP(=O)(c2ccc(N(C)C)cc2)C(O)c2cccnc2)C1", "note": "(stereo not drawn)", "Potency": "inactive"},
      {"smiles": "O=C(Nc1ccc2nc(SCCOc3ccccc3Cl)sc2c1)c1ccc2c(c1)OCO2", "Potency": "inconclusive: 0.501 µM [inhibitor, single point]"},
      {"smiles": "COc1ccc(/C=C/C(=O)c2cc3c(cc2N)OCO3)cc1", "Potency": "active: 2.82 µM"},
      {"smiles": "COc1ccc2nc3oc(C(=O)N4CCN(c5cccc(C(F)(F)F)c5)CC4)cc3cc2c1", "Potency": "inactive"},
      {"smiles": "O=C(C(=O)N1CCCc2ccccc21)N1CCCc2ccccc21", "Potency": "inactive"},
      {"smiles": "Cc1c(C(=O)N(Cc2ccco2)Cc2ccccc2Cl)oc2ccc(F)cc12", "Potency": "inconclusive: 10 µM [inhibitor, partial curve]"},
      {"smiles": "C=CC1=C2C=C(C3CC3)N(C(CO)CO)C=C2C(=O)C(C)(OC(=O)c2ccco2)C1=O", "note": "(stereo not drawn)", "Potency": "inconclusive: 1.58 µM [inhibitor, single point]"}
    ]}
  ]
}
